Fold increase and viability data for 49 compounds are collected here from PubChem BioAssay AID1956 (SRMLSC, 2009).

This is one part of the list. The main result of the screen is listed elsewhere. These columns were measured beside it and carry no call.

The nature of the assay: compounds boosting herpes simplex virus growth – fold increase, host cell viability (AID 1956). Note: tested in PC3 cells. The following applies: HSV replication augmentation in cells; fold increase: measured here: primary screen fold increase 10 uM, at 10 µM, stronger effect = higher value; viability: measured here: host cell viability series, at 25 µM, stronger effect = lower value.
What is called viability is a read-out of living cells in per cent, often relative to untreated cells. Consider `CCCc1cc(C(=O)NNC(=S)NCC2CCCO2)cs1` (stereo not given), for which the fold increase stood at 1.46 and the viability was found to be 98.3%. For `CC(C)Oc1ccc(C(=O)N/N=C/c2ccc(-c3ccc(S(=O)(=O)Nc4ncccn4)cc3)o2)cc1`, the fold increase was determined as 1.12. Regarding `CCc1nn(CC(=O)NCCCN2CCCC2=O)c(=O)c2cc3sccc3n12`, the fold increase was found to be 1.35 and the viability is 99.3%.

On to `CCCCOc1[nH]c2nc(-c3ccco3)n(Cc3ccco3)c(=N)c2c1C#N`, for which the fold increase is 2.21 and the viability was 79.8%. Regarding `COC(=O)c1ccccc1COn1c(=O)c[n+]([O-])c2ccccc21`, the fold increase is 1.43 and the viability turned out to be 92.7%. As for `CCN1CCN(C(=O)c2cc3c(=O)n(C)c4ccccc4c3n2C)CC1`, the fold increase is 1.32 and the viability was 96%.

On to `C#CCSc1nnnn1-c1cccc(Cl)c1`, for which the fold increase is 1.36 and the viability turned out to be 81.2%. As for `COc1ccc(NC(=O)/C(C#N)=C\c2ccc(N3CCOCC3)o2)cc1`, the fold increase turned out to be 7.87 and the viability came out at 89.7%.

In the case of `Cc1ccc(-c2ccccc2[C@@H]2C[C@H]3CN(C)C(=O)[C@]34CCCN24)o1`, the fold increase was 1.58 and the viability turned out to be 97.4%.

Consider `CCSc1nnc(Cn2c(=O)sc3ccccc32)n1-c1ccc(OC)cc1`, for which the fold increase was 1.42 and the viability amounted to 105%.

The compound `CCN1/C(=C/c2ccc3cc(C)ccc3[n+]2CC)Sc2cc(C)c(C)cc21` came in with a fold increase of 9.94. Consider `CCCCn1c(=O)[nH]c2nc3cc(N)ccc3nc2c1=O`, for which the fold increase was determined as 4.21 and the viability was 88.5%. For `Cc1ccc(NC(=O)N2CCC(C(=O)NCCC3=CCCCC3)CC2)cc1`, the fold increase came to 1.48 and the viability turned out to be 97.9%. Taken in the same sequence, the figures for `CN1CCc2c(sc3c2C(=O)NC(c2ccccc2)N3)C1` (stereo not given) were 1.47 and 102%.

For `CCOC(=O)/C=C1\SCC(=O)N1CC(=O)Nc1ccc(OC)c(OC)c1`, the fold increase amounted to 1.43. Same read-out and setting: then `Cc1cc(/C=C2/SC(=S)N(c3cccc(C(F)(F)F)c3)C2=O)c(C)n1-c1cccnc1`, with 1.2. In the case of `Nc1c(C(=O)Nc2nc3ccccc3s2)sc2nc(-c3cccs3)ccc12`, the fold increase worked out at 2.3 and the viability is 1.56%.

Take `CN(C)c1ccc(/C=C2\CCC/C(=C\c3ccccc3)C2=O)cc1`: the fold increase amounted to 3.02 and the viability amounted to 90.7%. As for `Cn1nccc1NS(=O)(=O)c1ccc(C(C)(C)C)cc1`, the fold increase worked out at 1.32 and the viability was found to be 101%. In the case of `O=C(NCCc1cccs1)C1CC(c2cccc([N+](=O)[O-])c2)=NO1` (stereo not given), the fold increase came to 1.35 and the viability came to 96%. Taken in the same sequence, the figures for `CC(=O)c1cccc(NC(=O)/C=C/c2ccc([N+](=O)[O-])s2)c1` were 1.47 and 51.1%. In the case of `CCN(CC)c1ccc(/C=C(\C#N)c2ccccn2)cc1`, the fold increase came to 1.48.

`O=C(O)C1CN(c2ncccc2[N+](=O)[O-])C1`: the fold increase came to 1.34 and the viability turned out to be 93%. As for `COc1cc(/C=C(\CC(=O)O)c2nc3ccccc3s2)cc(OC)c1O`, the fold increase was found to be 1.53 and the viability was 95.1%.

The compound `Cn1c2ccccc2c(=O)c2c(=O)n(Cc3ccco3)c(COc3ccccc3)nc21` displayed a fold increase of 2.03.

In the case of `CCOC(=O)c1c(-c2ccc(C)cc2)csc1NC(=O)/C(C#N)=C/c1ccc(O)c(OC)c1`, the fold increase amounted to 8.73 and the viability was determined as 94%. Turning to `CC(=O)NC1=NC(=O)/C(=C/c2cc(C)n(-c3cccc(C(=O)O)c3)c2C)S1`, the fold increase was found to be 1.55 and the viability turned out to be 97.9%. Turning to `CC(=O)c1ccc(-c2ccc(/C=C(/Sc3n[nH]c(C)n3)C(=O)O)o2)cc1`, the fold increase is 1.59 and the viability worked out at 99.9%.

Take `CSc1ccccc1NC(=O)CN(C)CC(=O)Nc1cc(C)ccc1C`: the fold increase came out at 1.34 and the viability came to 98%. In the case of `CCOC(=O)c1[nH]c(C)c(C(=O)Nc2ccc(C)c(C)c2)c1C`, the fold increase amounted to 1.4 and the viability is 85.5%. For the compound `O=C(CSc1nc2c(c(C(F)(F)F)n1)CCc1ccccc1-2)NCc1ccccc1`, the fold increase amounted to 1.14. As to `CC1(C)Cc2nc(Cl)c(C(=O)O)cc2CO1`, the fold increase was determined as 1.53 and the viability is 104%.

Regarding `CCNC(=O)c1oc2c(c1C)C(=O)CC(C)(C)C2`, the fold increase was found to be 1.36 and the viability turned out to be 85.2%. With `Cc1ccc(C(=O)OCCn2cc(C#N)c(=O)[nH]c2=O)cc1`, the fold increase was 1.52 and the viability came out at 104%.

Consider `CCOc1ccc(C2CC(c3ccc(F)cc3)Nc3nc(N)nn32)cc1` (stereo not given), for which the fold increase worked out at 1.35 and the viability is 93.8%. For `NC(=S)N/N=C/c1ccccc1`, the fold increase is 1.36 and the viability came out at 98.4%. In turn, `COc1ccc2[nH]c3c(=O)n(Cc4ccco4)cnc3c2c1` yielded a fold increase of 1.11.

As to `O=c1oc2c3c4c(cc2c(C(F)(F)F)c1CCN1CCOCC1)CCCN4CCC3`, the fold increase was found to be 3.06 and the viability was 90.3%. As to `CC(=O)c1ccc(-n2c(-c3cc(-c4ccco4)[nH]n3)n[nH]c2=S)cc1`, the fold increase stood at 1.32. In the case of `CCN1/C(=C/C=C/c2oc3ccc4ccccc4c3[n+]2CC)Oc2ccc3ccccc3c21`, the fold increase is 9.44 and the viability was found to be 44.9%.

`N/N=C(\Cc1cscn1)c1ccc(O)cc1O` registered a fold increase of 1.92. On to `CCOc1ccc(C(=O)C2CCN(C(=O)c3ccccc3C(=O)O)CC2)cc1`, for which the fold increase is 1.54 and the viability worked out at 95.5%. On to `CC/C(=N\NC(N)=O)c1ccc(OC(F)F)cc1`, for which the fold increase worked out at 1.34 and the viability was determined as 93.5%.

Consider `CN(CC(=O)Nc1ccccc1Sc1ccccc1)C1CCCCC1`, for which the fold increase turned out to be 1.35. On the same count and under the same terms, with `Cc1ccccc1N=Cc1cc2c(cc1O)OC(N)=C(C#N)C2c1ccccc1` (stereo not given) the figure was 1.32. For the compound `CC(C)(C)c1cccc(Oc2nn[nH]n2)c1`, the fold increase amounted to 1.46 and the viability is 97.5%. Regarding `COCCOC(=O)C1=C(C)NC(=O)NC1c1c(Cl)nc2ccccn2c1=O` (stereo not given), the fold increase is 1.96 and the viability was determined as 92.2%. `CCN(CC)S(=O)(=O)c1ccc(C(=O)NCc2n[nH]c(=S)n2Cc2ccccc2)cc1`: the fold increase turned out to be 1.38 and the viability is 113%. Turning to `COc1ccc(Nc2nc(Nc3ccc(OC)cc3)nc(SC3=NCCS3)n2)cc1`, the fold increase was determined as 1.52.
